{"source": "ChEMBL document CHEMBL5308541", "about": "“MAIP: An Open-Source Tool to Enrich High-Throughput Screening Output and Identify Novel, Druglike Molecules with Antimalarial Activity” (ACS Med Chem Lett, 2023)", "note": "In all, about 150,000 compounds went through this assay and about 540 (0.36%) showed an effect of 50% or more. The list shows a part of the results."}
{"tested_on": "Plasmodium falciparum", "assay": "Primary screen in NF54 nanoGlo assay, in single point, at 2uM, 72h; a lower Z score goes with more inhibition", "type": "functional, Erythrocyte", "conditions": "timepoint 72 hour", "units": {"% Inhibition": "%"}}
{"smiles": "Cc1cccc([C@@H](C)CNC2CCN(CCN3CCOCC3)CC2)c1", "% Inhibition": -4, "Z score": 0.67}
{"smiles": "CC(C)CN1CCN(c2cc(NC3CC3)nc(N)n2)C[C@@H]1CCO", "% Inhibition": 1, "Z score": -0.17}
{"smiles": "FC1(F)CC12CC1CCC(C2)N1c1ncnc2[nH]ccc12", "note": "(configuration not stated)", "% Inhibition": -2, "Z score": 0.34}
{"smiles": "N#Cc1ccc(C(=O)N(CCC(=O)N2CCNCC2)CCN2CCN(c3ccccc3)CC2)cc1", "% Inhibition": -11, "Z score": 1.9}
{"smiles": "c1cncc(-c2nc3c(c(NCC[C@H]4CCCN4)n2)CNC3)c1", "% Inhibition": -3, "Z score": 0.58}
{"smiles": "O=C(Cn1ccn2nc(-c3ccc4c(c3)OCO4)cc2c1=O)Nc1cccc(Cl)c1", "% Inhibition": 1, "Z score": -0.22}
{"smiles": "CN1CCN(c2cc(N3CCC[C@H](CN4CCCCC4)C3)nc(N)n2)CC1", "% Inhibition": -9, "Z score": 1.34}
{"smiles": "Cc1cc(NCCN2CCC(CO)CC2)nc(N2CCCC2)n1", "% Inhibition": 3, "Z score": -0.56}
{"smiles": "O=C(NCC1CCN(CCc2ccccc2)CC1)Nc1ccc2[nH]ncc2c1", "% Inhibition": -2, "Z score": 0.48}
{"smiles": "CCOC(=O)c1cnc2c(cnn2C)c1N(C)Cc1c(C)noc1C", "% Inhibition": 3, "Z score": -0.54}
{"smiles": "COC1CCCC12CCCN(S(=O)(=O)c1cc(-c3cc(C(F)(F)F)on3)cs1)C2", "note": "(configuration not stated)", "% Inhibition": -5, "Z score": 0.73}
{"smiles": "CCOc1ccc(-c2nccn2-c2ccc(N3CCN(C)CC3)nc2)cc1CO", "% Inhibition": 3, "Z score": -0.58}
{"smiles": "NCC[C@H]1CN(C(=O)c2ccc(-c3ccc(NC4CC4)nn3)cc2)CCO1", "% Inhibition": -12, "Z score": 2.08}
{"smiles": "CC(C)COc1ccccc1CN(C)C(=O)CCN1CCCC1=O", "% Inhibition": -22, "Z score": 4.28}
{"smiles": "COCOc1ccc(OC)cc1CNC1CCN(C2CCN(C)CC2)CC1", "% Inhibition": 17, "Z score": -3.56}
{"smiles": "CC(C)Nc1ccnc(NCc2cccnc2N2CCc3ccccc3C2)n1", "% Inhibition": -2, "Z score": 0.27}
{"smiles": "OCC1(CNc2nc(-c3ccncc3)nc3c2CCNC3)CCOCC1", "% Inhibition": -13, "Z score": 2.9}
{"smiles": "Cc1cccc(N2CCC(Nc3ncc(F)c(N4CCCC4)n3)CC2)c1", "% Inhibition": -11, "Z score": 2.47}
{"smiles": "O=C(O)c1ccnc(-c2ccnc(NCCN3CCCC[C@@H]3CO)n2)c1", "% Inhibition": -5, "Z score": 0.82}
{"smiles": "CN(C)Cc1ccc([C@@H]2CCCN2c2cncc(C(=O)N3CCN(C)CC3)n2)cc1", "% Inhibition": -2, "Z score": 0.37}
{"smiles": "C[C@@H](C1CC1)n1nccc1NC(=O)NC1(c2ccc(C#N)cc2)CCOCC1", "% Inhibition": -10, "Z score": 1.5}
{"smiles": "Nc1n[nH]c2ccc(-c3ccc(C(=O)NCCCN4CCCC4)cc3)cc12", "% Inhibition": 4, "Z score": -0.76}
{"smiles": "N#Cc1cc(C(F)(F)F)ccc1N1CCN(C[C@H]2CCOC2)CC1", "% Inhibition": -3, "Z score": 0.5}
{"smiles": "OCC[C@H]1CCCCCN1Cc1ccc(OCCN2CCOCC2)c(Cl)c1", "% Inhibition": 9, "Z score": -1.32}
{"smiles": "OC(CN1CCC(C2CCCOC2)CC1)CN1CCC(C2CCCOC2)CC1", "note": "(configuration not stated)", "% Inhibition": -7, "Z score": 1.06}
{"smiles": "c1ccc(-c2ccc(-c3noc([C@H]4CC[C@H](Nc5ncccn5)CC4)n3)cc2)cc1", "% Inhibition": -5, "Z score": 1.12}
{"smiles": "Cc1cc2n(n1)CCCN(c1ccc3cc[nH]c3n1)C2", "% Inhibition": 5, "Z score": -0.87}
{"smiles": "Cc1cc(N2CCC(Nc3ccnc4ccncc34)CC2)nc(C)n1", "% Inhibition": 25, "Z score": -5.3}
{"smiles": "CC(C)Oc1cc(NCC2(CN3CCN(C)CC3)CC2)nc(N)n1", "% Inhibition": -7, "Z score": 1.06}
{"smiles": "CN(C)CC1CC(CO)CN(C(=O)Cc2ccc3[nH]c4ccccc4c3c2)C1", "note": "(configuration not stated)", "% Inhibition": -10, "Z score": 2.07}
{"smiles": "Cc1noc(Cn2cc(O)c(-c3nc4ccccc4[nH]3)c2N)n1", "% Inhibition": -12, "Z score": 1.8}
{"smiles": "CNCc1nc2cc(C(F)(F)F)ccc2[nH]1", "% Inhibition": 0, "Z score": 0.04}
{"smiles": "CNC(=O)c1cc2cc(NC(=O)c3cc(-c4ccco4)[nH]n3)ccc2[nH]1", "% Inhibition": -6, "Z score": 0.93}
{"smiles": "CN(C)CCCN(C)C(=O)c1cccc(-c2ccc3cc[nH]c(=O)c3c2)c1", "% Inhibition": 4, "Z score": -0.96}
{"smiles": "COC1CCN(S(=O)(=O)Nc2cccc(C(=O)CCC(=O)O)c2)CC1", "% Inhibition": 1, "Z score": -0.3}
{"smiles": "COC(=O)CN1CCC(NC2CCN(c3ccc(C)cn3)CC2)CC1", "% Inhibition": 9, "Z score": -1.99}
{"smiles": "CN(Cc1cnc(N)nc1)c1nc(NC2CC2)nc2c1CCNCC2", "% Inhibition": -10, "Z score": 1.69}
{"smiles": "FC(F)(F)Oc1cccc(CNC2CCN(C3CC3)CC2)c1", "% Inhibition": -13, "Z score": 2.24}
{"smiles": "COc1ccc(Nc2nc(Cc3ccsc3)cs2)cc1F", "% Inhibition": -8, "Z score": 1.36}
{"smiles": "Cc1nc(Nc2cccc(Oc3ccccn3)c2)c2cnn(C)c2n1", "% Inhibition": 4, "Z score": -0.86}
{"smiles": "COc1cccc(C(CNCC(O)CN2CCOCC2)c2c[nH]c3ccccc23)c1OC", "note": "(configuration not stated)", "% Inhibition": -3, "Z score": 0.55}
